According to a collection of fitness landscapes (doi:10.1038/s41467-024-54723-y):
In all, about 18,000 sequences were measured (“TetR repression strength (sort-seq, GFP reporter)”: median about 0.23, highest 2% from about 0.68 on). Some of the results follow.

target: TetR (class B, Tn10) (UniProt P04483); assay: TetR repression strength (sort-seq, GFP reporter) (relative to tetO2 = 1); higher = stronger repression; settings: E. coli
Summary of the method: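 In LB with 50 µg/mL chloramphenicol, E. coli SIG10-MAX holding a low-copy library with eight randomized operator positions between a constitutive promoter and sfGFP, plus constitutive TetR, grew for 5 h at 37 °C. FACS then sorted 10^6 cells into 13 fluorescence bins for Illumina sequencing of each bin. Repression strength equals the top bin index plus one less the read-weighted mean bin, normalized to the unaltered operator. Values from three independent transformations were averaged when reads were ≥30 in every replicate and the CV was ≤0.5.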

Sequence of UniProt P04483 (P04483 whole entry): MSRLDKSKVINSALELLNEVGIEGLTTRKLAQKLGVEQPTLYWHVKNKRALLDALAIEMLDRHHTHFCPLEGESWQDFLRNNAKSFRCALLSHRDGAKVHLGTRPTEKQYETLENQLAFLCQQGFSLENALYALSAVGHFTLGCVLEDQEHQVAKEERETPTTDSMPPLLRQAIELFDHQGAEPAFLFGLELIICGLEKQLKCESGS

Sequence	TetR repression strength
TCCCTACAAGTCGTAGAGA	0.0381
TCCCTGTAAGTGAAAGAGA	0.231
TCCCCTTCAGTGCGGGAGA	0.041
TCCCAGGTAGTACGCGAGA	0.224
TCCCACCTAGTTAACGAGA	0.589
TCCCTGCAAGTGGAGGAGA	0.59
TCCCGGATAGTAAACGAGA	0.224
TCCCTTACAGTCCGGGAGA	0.206
TCCCGTGAAGTCATGGAGA	0.232
TCCCGGTAAGTCGTGGAGA	0.0301
TCCCTAAGAGTGGGCGAGA	0.157
TCCCGGCGAGTACGGGAGA	0.2
TCCCTCGCAGTGGAGGAGA	0.101
TCCCAGGGAGTTTTAGAGA	0.305
TCCCAGGCAGTCCGTGAGA	0.2
TCCCTTCTAGTGTGGGAGA	0.142
TCCCAAGCAGTGGTAGAGA	0.313
TCCCCTAGAGTCAGTGAGA	0.248
TCCCGGCCAGTTCCAGAGA	0.0274
TCCCCGGCAGTTCGGGAGA	0.104
TCCCTACCAGTTCTTGAGA	0.396
TCCCTTCGAGTGTATGAGA	0.287
TCCCGCGAAGTGAACGAGA	0.175
TCCCCTACAGTGACGGAGA	0.174
TCCCGCAGAGTATGCGAGA	0.401
TCCCGGTGAGTCGCTGAGA	0.035

Sequence	TetR repression strength
TCCCTAGTAGTCGAGGAGA	0.061
TCCCGATAAGTTATAGAGA	0.553
TCCCGGTGAGTTTAAGAGA	0.0498
TCCCAGTCAGTGACGGAGA	0.337
TCCCGTATAGTGCACGAGA	0.118
TCCCGACTAGTCTGGGAGA	0.299
TCCCAGAAAGTATCAGAGA	0.376
TCCCATAGAGTCGACGAGA	0.247
TCCCGGCAAGTTTTAGAGA	0.0853
TCCCCGTAAGTCACCGAGA	0.273
TCCCGGCGAGTAGTAGAGA	0.287
TCCCTTCGAGTAGGGGAGA	0.231
TCCCCCCCAGTTAGAGAGA	0.253
TCCCTAGTAGTTTTTGAGA	0.256
TCCCTTAGAGTAATCGAGA	0.187
TCCCGCCTAGTTGGCGAGA	0.0841
TCCCAAGTAGTAAATGAGA	0.193
TCCCAATAAGTGTCTGAGA	0.465
TCCCGGGCAGTAGTCGAGA	0.373
TCCCATAAAGTGACAGAGA	0.0912
TCCCTGCAAGTAAGTGAGA	0.135
TCCCGGGTAGTGCCTGAGA	0.159
TCCCTGTCAGTCAGTGAGA	0.135
TCCCACCGAGTGCGTGAGA	0.253
TCCCTGCTAGTCGTTGAGA	0.423
TCCCGGTTAGTTTGTGAGA	0.212

Sequence	TetR repression strength
TCCCGGTAAGTGGCAGAGA	0.21
TCCCGTGCAGTTGCGGAGA	0.191
TCCCATTAAGTGGTCGAGA	0.235
TCCCAAAAAGTAAAGGAGA	0.351
TCCCTGGGAGTCGTAGAGA	0.111
TCCCGGCTAGTTGGAGAGA	0.225
TCCCCCCCAGTGCAAGAGA	0.379
TCCCGCGGAGTGGATGAGA	0.257
TCCCCGCGAGTGAGGGAGA	0.124
TCCCTAACAGTTAACGAGA	0.624
TCCCAAACAGTACGTGAGA	0.253
TCCCGTATAGTGCCTGAGA	0.119
TCCCTCTAAGTGCTAGAGA	0.582
TCCCCGTCAGTACTAGAGA	0.286
TCCCCGAGAGTGACGGAGA	0.372
TCCCGTCCAGTGTCCGAGA	0.0697
TCCCTGTGAGTATTTGAGA	0.225
TCCCGTAAAGTGGTCGAGA	0.0884
TCCCGCGGAGTGCGAGAGA	0.108
TCCCGATCAGTGAGTGAGA	0.62
TCCCGGACAGTGCCAGAGA	0.402
TCCCTTGCAGTATTTGAGA	0.436
TCCCTGGGAGTCGACGAGA	0.214
TCCCCTGGAGTAGGTGAGA	0.0556
TCCCGGGTAGTTGCAGAGA	0.125
TCCCTTTAAGTGTTCGAGA	0.275

Sequence	TetR repression strength
TCCCTCTTAGTTTTAGAGA	0.213
TCCCAGAGAGTGCAGGAGA	0.0148
TCCCACGGAGTTGTGGAGA	0.306
TCCCACTAAGTTAGTGAGA	0.131
TCCCTTCAAGTGATCGAGA	0.232
TCCCCCCTAGTGGCAGAGA	0.263
TCCCCCTGAGTTGGGGAGA	0.307
TCCCGAATAGTGAGGGAGA	0.127
TCCCCTACAGTGGTCGAGA	0.216
TCCCGATCAGTGTTGGAGA	0.213
TCCCTAGGAGTAGATGAGA	0.27
TCCCGAGTAGTCCTCGAGA	0.207
TCCCATTCAGTAAGTGAGA	0.527
TCCCGTATAGTACTCGAGA	0.123
TCCCATGCAGTGTGGGAGA	0.299
TCCCCGGAAGTGACTGAGA	0.239
TCCCATTTAGTGGGTGAGA	0.0643
TCCCAGGTAGTGCTTGAGA	0.262
TCCCGACTAGTCGTGGAGA	0.245
TCCCGCATAGTCCGCGAGA	0.156
TCCCGGTTAGTTTGCGAGA	0.201
TCCCTCGTAGTCGAGGAGA	0.317
TCCCGCGGAGTGAACGAGA	0.178
TCCCTGAAAGTGCGGGAGA	0.127
TCCCTGGGAGTAGTCGAGA	0.244
TCCCATAGAGTGGTTGAGA	0.158

Sequence	TetR repression strength
TCCCACATAGTGTATGAGA	0.288
TCCCGCAGAGTGAGGGAGA	0.284
TCCCTTTTAGTGTACGAGA	0.207
TCCCTCCTAGTGTGGGAGA	0.194
TCCCCTTAAGTGAAAGAGA	0.253
TCCCTTCTAGTCAGGGAGA	0.196
TCCCAGTGAGTAGCGGAGA	0.17
TCCCAAAGAGTCACAGAGA	0.218
TCCCGGACAGTCTGCGAGA	0.172
TCCCGAAAAGTCAAGGAGA	0.398
TCCCGCACAGTATCTGAGA	0.351
TCCCTCGTAGTGGGCGAGA	0.146
TCCCATCGAGTGCCTGAGA	0.104
TCCCCAAGAGTAAGTGAGA	0.332
TCCCCCACAGTTATGGAGA	0.151
TCCCGCATAGTCATCGAGA	0.213
TCCCGCATAGTGGGGGAGA	0.356
TCCCAAAAAGTTGGCGAGA	0.309
TCCCGTAGAGTTGCGGAGA	0.209
TCCCTGGCAGTTTAGGAGA	0.215
TCCCGAAGAGTATGTGAGA	0.285
TCCCGACAAGTGGCGGAGA	0.184
TCCCTTTAAGTGTTGGAGA	0.276
TCCCGGGAAGTGTTGGAGA	0.119
TCCCCTTCAGTTTCTGAGA	0.357
TCCCGGGGAGTGAGAGAGA	0.449

Sequence	TetR repression strength
TCCCTGGGAGTTATGGAGA	0.215
TCCCGGAAAGTTGGTGAGA	0.27
TCCCCACCAGTGGCGGAGA	0.231
TCCCTGTTAGTTACCGAGA	0.227
TCCCCGCGAGTGCGTGAGA	0.345
TCCCGTGTAGTAGCGGAGA	0.182
TCCCTAGGAGTTAATGAGA	0.208
TCCCAATGAGTGGGCGAGA	0.238
TCCCAGTAAGTACGGGAGA	0.181
TCCCTAAAAGTGTTCGAGA	0.302
TCCCTGATAGTCGATGAGA	0.247
TCCCTCACAGTCTGGGAGA	0.212
TCCCTGAGAGTGCGCGAGA	0.173
TCCCTATCAGTCCGAGAGA	0.324
TCCCCTGAAGTTGGGGAGA	0.146
TCCCGGACAGTGGTTGAGA	0.164
TCCCGTCTAGTTTTGGAGA	0.311
TCCCACAAAGTTGTAGAGA	0.207
TCCCTGTAAGTCGGCGAGA	0.213
TCCCTCGCAGTCGGTGAGA	0.176
TCCCTACAAGTAGGGGAGA	0.225
TCCCGTTGAGTTAGAGAGA	0.171
TCCCATGGAGTGTAAGAGA	0.236
TCCCTTAAAGTGGCTGAGA	0.27
TCCCCACAAGTGCACGAGA	0.211
TCCCAGCAAGTCTAGGAGA	0.284

Sequence	TetR repression strength
TCCCTGCTAGTGATGGAGA	0.562
TCCCGGATAGTTAGGGAGA	0.336
TCCCTTGGAGTAATAGAGA	0.273
TCCCCGACAGTGACCGAGA	1.08
TCCCTGCCAGTGCTTGAGA	0.139
TCCCGTTCAGTTGCAGAGA	0.0605
TCCCAATCAGTGAATGAGA	0.603
TCCCCCAGAGTAGACGAGA	0.204
TCCCCTGGAGTAATAGAGA	0.435
TCCCAGAAAGTCAATGAGA	0.289
TCCCAGACAGTACTGGAGA	0.17
TCCCATACAGTGCTTGAGA	0.181
TCCCGGTTAGTATACGAGA	0.207
TCCCCCACAGTGCGAGAGA	0.213
TCCCGGATAGTGATCGAGA	0.33
TCCCGAGGAGTCGGGGAGA	0.44
TCCCCGGCAGTGGGCGAGA	0.199
TCCCGGCGAGTTTTCGAGA	0.139
TCCCCTGCAGTATGAGAGA	0.855
TCCCGGCCAGTGCGAGAGA	0.212
TCCCCACCAGTCTGCGAGA	0.243
TCCCTGAGAGTGCTGGAGA	0.564
TCCCTGCCAGTAGAGGAGA	0.277
TCCCCCCTAGTCAGTGAGA	0.198
TCCCGACCAGTTGGTGAGA	0.387
TCCCGAGGAGTGGCCGAGA	0.175

Sequence	TetR repression strength
TCCCTGTGAGTAGATGAGA	0.255
TCCCTTGGAGTGCGAGAGA	0.195
TCCCATTTAGTTGCAGAGA	0.177
TCCCACATAGTGCGAGAGA	0.198
TCCCCTAGAGTGGTTGAGA	0.285
TCCCAGGGAGTGGGTGAGA	0.571
TCCCAACGAGTATGGGAGA	0.0429
TCCCAGTAAGTGCCCGAGA	0.0992
TCCCTCCCAGTGGCCGAGA	0.384
TCCCTGGTAGTCCGGGAGA	0.223
TCCCACGGAGTGTGGGAGA	0.15
TCCCTTGGAGTGGAGGAGA	0.351
TCCCGCTCAGTTGGCGAGA	0.195
TCCCGTGAAGTGCGCGAGA	0.277
TCCCGCTCAGTGTGCGAGA	0.112
TCCCCATTAGTATAAGAGA	0.12
TCCCATCGAGTCTTAGAGA	0.366
TCCCTGCTAGTAAGGGAGA	0.196
TCCCCCGAAGTGATAGAGA	0.354
TCCCGTCGAGTGCGGGAGA	0.156
TCCCGGTTAGTCAGGGAGA	0.333
TCCCTTTAAGTATATGAGA	0.12
